# Hit rate of the full screen: of about 420,000 compounds, about 64,000 (15%) were called active. This list was built around the results that the source calls inconclusive (neither active nor inactive); the mix of calls is not that of the screen. Calls follow the shape of the dose curve; as a rule, active = well fitted inhibition curve with a large enough effect; inconclusive = small, poorly fitted or top-dose-only effect; inactive = flat fitted curve, though single readings scatter. Potencies of inconclusive entries are left out as doubtful fits.
# Assay: qHTS for Inhibitors of human tyrosyl-DNA phosphodiesterase 1 (TDP1): qHTS in cells in absence of CPT; also: nearly all actives have a fitted effect of over 55% in size
# Conditions: DT40 Tdp1-/- hTDP1 cells, no CPT, ATP luminescence, 48 h; activity change, negative = growth inhibition: at 46.2 µM (top of the series) unless noted
# Outline: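 Camptothecin absent (DMSO only). Human TDP1-complemented DT40 knockout cells, 400 cells/well, 37 °C for minimum 48 hr; ATP measured via CellTiter-Glo, 30 min dark incubation, luminescence.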
# % is scaled to controls: 0 for no effect and ±100 for the full control effect; potency is read from the fitted curve at half-maximal effect; tags tell the direction and shape of the fitted curve.
Structure (SMILES),Potency,"activity change, negative = growth inhibition"
COc1ccccc1N(CCC#N)C(=O)COC(=O)CCC(=O)c1ccc(F)cc1,inactive,–
Cc1nc2ncccn2c1-c1csc(Nc2ccccc2)n1,active: 18.4 µM,–
Cc1noc(C)c1S(=O)(=O)Nc1ccc2c(c1)C(=O)N([C@H](C)CO)C[C@H](C)[C@H](CN(C)C(=O)NC(C)C)OCCCC[C@@H](C)O2,inactive,–
Cc1ccc(C)c(C(=O)COC(=O)C(C)N2C(=O)C3C4CCC(C4)C3C2=O)c1 (stereo not given),"inconclusive [inhibitor, single point]",–
O=C(Nc1ccc(N2CCOCC2)c(Cl)c1)c1cccc(F)c1,"inconclusive [inhibitor, partial curve]",–
CC(C)CC(=O)N=C1SC2CS(=O)(=O)CC2N1Cc1ccccc1Cl (stereo not given),inactive,–
Cc1cccc(C(=O)NCCc2nc3ccccc3n2Cc2ccc(Cl)cc2)c1,"inconclusive [inhibitor, single point]",–
COc1ccc2c3c(cccc13)OCC2=O,"inconclusive [inhibitor, single point]",–
CCC(CC)C(=O)Nc1ccccc1SCc1cc(=O)c2cccc(C)c2[nH]1,"inconclusive [inhibitor, partial curve]",–
CC(C)c1cc(=O)n2[nH]c(SCc3ccccc3Cl)nc2n1,"inconclusive [inhibitor, single point]",–
O=C(C[n+]1ccc(/C=C/c2ccccc2)cc1)c1ccc2c(c1)OCCO2,active: 9.2 µM,–
COCCCNC(=O)C1CCC(Cn2c(=O)c3sccc3n(C)c2=O)CC1 (stereo not given),inactive,–
OC1(CNCc2cn[nH]c2-c2cc3ccccc3o2)CCCCC1,"inconclusive [inhibitor, single point]",–
OC(c1ccc2c(c1)OCO2)c1ncc(-c2cccc(C(F)(F)F)c2)[nH]1 (stereo not given),active: 8.2 µM,–
CCc1ccc(OCC2c3cc(OC)c(OC)cc3CCN2C(=S)NCCOC)cc1 (stereo not given),"inconclusive [inhibitor, single point]",–
Cc1ccc(NC(=O)c2ccc(Cl)cc2Cl)c(C(=O)c2ccccc2)c1,"inconclusive [inhibitor, partial curve]",–
Cc1ccccc1-c1noc(C2CCCCC2)n1,–,inconclusive: -31.4% [inhibitor]
COc1cc2c(cc1OC)C1(Nc3c-2c(-c2ccccc2)nn3-c2ccccc2)C(=O)Nc2ccccc21 (stereo not given),"inconclusive [inhibitor, single point]",–
C=CCn1c(C)cc(C2=NNC(=NC(C)(C)C)SC2)c1C,"inconclusive [inhibitor, single point]",–
COc1cc(C(=O)NCCOc2cc(C)cc(C)c2)cc(OC)c1OC,active: 2.91 µM,–
CCOC(=O)C1CCN(c2nc3c(S(=O)(=O)c4ccccc4)nnn3c3ccc(Cl)cc23)CC1,active: 14.6 µM,–
COC(=O)c1ccccc1NS(=O)(=O)c1ccc2c(c1)oc(=O)n2C,"inconclusive [inhibitor, single point]",–
COC(=O)c1nc2ccc(C)cn2c1F,inactive,–

Structure (SMILES),Potency,"activity change, negative = growth inhibition"
COc1ccccc1C(=O)NCC(C)(C)CN=C1NS(=O)(=O)c2ccccc21,"inconclusive [inhibitor, single point]",–
CS(=O)(=O)N1CCN(c2ccc([N+](=O)[O-])c(NCCN3CCOCC3)c2)CC1,"inconclusive [inhibitor, full curve]",–
COc1ccc(NC(=O)CNS(=O)(=O)c2cccc3nonc23)c(OC)c1,inactive,–
COc1ccc(/C(C)=N/NC(=O)c2ccccc2OCc2ccccc2)c(OC)c1,"inconclusive [inhibitor, single point]",–
COCCCNC(=O)C(=O)Nc1ccc2c(c1)N(S(=O)(=O)c1cccs1)CCC2,active: 0.58 µM,–
CCOC(=O)c1sc(NN=C(C(=O)OC)C(=O)OC)c(C(=O)OCC)c1C,"inconclusive [inhibitor, partial curve]",–
COc1cc(C(O)c2nc(-c3ccc(C)c(C)c3)cs2)ccc1F (stereo not given),"inconclusive [inhibitor, single point]",–
Cc1ccc(S(=O)(=O)N(CC(=O)NCCSCc2ccco2)c2cc(C)ccc2C)cc1,"inconclusive [inhibitor, single point]",–
Cn1c(OCc2cccnc2)nc2c1c(=O)n(Cc1ccc(Cl)cc1)c(=O)n2C,active: 18.4 µM,–
CCCCc1c(C)nc2c(-c3ccc(Cl)cc3)c(C)[nH]n2c1=O,active: 1.64 µM,–
CSc1ccc(Cn2c(C)c(C(=O)NCc3ccc4c(c3)OCCO4)sc2=O)cc1,"inconclusive [inhibitor, single point]",–
CSc1ccc(CN2CCC(C)(Oc3ccc(-n4ccnc4)cc3)C2)cc1 (stereo not given),active: 18.4 µM,–
Cc1ccc(OCc2cc(C(=O)N(C)Cc3cc(C4CC4)n[nH]3)no2)cc1C,active: 23.1 µM,–
CCOC1(NC(=O)c2ccccc2)C(C)=CC(=O)C=C1C,"inconclusive [inhibitor, single point]",–
Cc1ccc(C)c(N2CCN(S(=O)(=O)c3ccc(-c4coc(C)n4)cc3)CC2)c1,"inconclusive [inhibitor, single point]",–
CC(O)CN(C)CC/C=C1/c2ccccc2CSc2ccccc21 (stereo not given),"inconclusive [inhibitor, single point]",–
Cc1ccccc1OCC(=O)NCC(=O)OCC(=O)c1ccc2ccccc2c1,inactive,–
CSc1ccc(C(c2c(C)[nH][nH]c2=O)c2c(C)[nH][nH]c2=O)cc1,"inconclusive [inhibitor, partial curve, poor fit]",–
CCN(CC(=O)NCc1ccc(F)cc1)C(=O)COc1ccc(C)c(C)c1,"inconclusive [inhibitor, single point]",–
Nc1nc(-c2ccc(Oc3ccccc3)cc2)c(CC(=O)O)s1,inactive,–
Cc1ccc2cc(/C=N/NC(=O)c3ccc(F)cc3)c(Cl)nc2c1,inactive,–
O=C(c1ccc(F)c(S(=O)(=O)N2CCOCC2)c1)N1CCc2ccccc21,"inconclusive [inhibitor, single point]",–
